Measurements published in PubChem BioAssay AID1508624 (National Center for Advancing Translational Sciences (NCATS), 2021).
The whole screen tested about 48,000 compounds, of which about 120 (0.25%) were called active. Not shown: some 4% with an inconclusive outcome. Calls come from the whole dose curve; as a rule, active = well fitted activation curve with a large enough effect; inconclusive = small, poorly fitted or top-dose-only effect, or another doubt; inactive = no such curve, though single readings can be large or run the other way. The list shows a part of the results.

experiment: Primary qHTS for Identification of Small Molecule Activators of Huntingtin-Antisense Promoter Activity; settings: HEK293 HTT-AS promoter firefly luciferase reporter, 24 h; series mostly up to 57.5 µM; activity change, positive = activation: at the top concentration; note: nearly all actives have a fitted effect of over 55% in size
Excerpt: Assay Provider: Russell L. Margolis M.D.
Department Neurology, Johns Hopkins University School of Medicine, Baltimore, MD
Huntington's Disease (HD) is a neurodegenerative disorder caused by a CAG repeat expansion in exon 1 of huntingtin (HTT). While there are currently no disease-modifying treatments for HD, recent efforts have focused on development of nucleotide-based therapeutics to lower HTT expression. As an alternative to siRNA or oligonucleotide methods, we hypothesized that suppression of HTT expression might be accomplished by small molecules that either (1) directly decrease HTT expression by suppressing HTT promoter activity or (2) indirectly decrease HTT expression by increasing the promoter activity of HTT-AS, the gene antisense to HTT that appears to inhibit expression of HTT.
We developed and employed a high throughput screen for modifiers of HTT and HTT-AS promoter activity using luminescent reporter HEK293 cells; of the 52,041 compounds tested, we identified 898 replicable hits. We used a rigorous stepwise approach to assess compound toxicity and the capacity of the compounds to specifically lower huntingtin protein in 5 different cell lines, including HEK293 cells, HD lymphoblastoid cells, mouse primary neurons, HD iPSCs differentiated into cortical-like neurons, and HD hESCs. We found no compounds which were able to lower huntingtin without lowering cell viability in all assays, though the potential efficacy of a few compounds at non-toxic doses could not be excluded.
SEQUENCE No. (1, 2, 3, etc.); […] (e.g., Cells, Incubation, Reagent, etc.); VALUE and DESCRIPTION.
1; Reagent; 4 uL; 2,500 Hek293 luciferase reporter cells per wells
3; Compound; 23 nL; Control inhibitor / compound library
5; Reagent; 2.5 uL; Firefly Luc reagent; Dual-Glo Luciferase Reporter Assay System (Promega)
6; Time; 10 min; room temperature incubation
7; Detection; Luminescence; FLuc
NOTES (numbers refer to sequence above)
1; High-throughput screening, measuring luminescence from a Hek293 luciferase reporter, was performed in 1,536 well white-walled tissue-culture treated plates. 2,500 cells were plated in 4 µL of Opti-MEM per well using a Multidrop Combi Reagent Dispenser (ThermoFisher).
2; Assay plates were cultured for 24 hours.
3; Control inhibitor (PTC124; final concentration of 50 uM) and compound library (at final concentrations of 460 nM - 57.5 uM) were added to the assay plate using the Kalypsis Pintool Robotic System equipped with 1536 pinheads.
4; Cells were then incubated for 24 hours at 37 degrees C prior to luminescence measurements.
5; In all cases, luminescence was measured using the Dual-Glo Luciferase Reporter Assay System (Promega) following the manufacturer's instructions.
6; Room temperature incubation.
7; Luminescence signal was obtained using the PerkinElmer ViewLux plate reader. Results were normalized to vehicle control (0% activity) and zero RLU (-100% activity).

Activity change, positive = activation, inactive:
COc1ccc(C(=O)NCC(c2ccc3c(c2)OCO3)N2CCOCC2)cc1OC (stereo not drawn) -9.15%
CC(=O)Nc1ccc(Nc2ncnc3sc4c(c23)CCCC4)cc1 -11.8%
CCn1c(CC2C(=O)N(C)c3ccc(Br)cc32)nc2ccccc2c1=O (stereo not drawn) -15.5%
Cc1cccc(C(=O)N2CCc3cc(CNS(=O)(=O)c4cccs4)ccc32)c1 -33.1%
Cc1ccc2nc(N(Cc3cccnc3)C(=O)CCOc3ccccc3)sc2c1 10.5%
CCc1cc2c(cc3c(=O)n(CC(=O)NCCOC)nc(CC)n32)s1 7.32%
CCOC(=O)c1ccc(NC(=O)Cn2cnc3sc(C(=O)OCC)c(C)c3c2=O)cc1 -21%
CCc1ccc(NC(=O)CSc2nc3c([nH]c4ccccc43)c(=O)n2-c2cccc(OC)c2)cc1 -32.5%
COc1cc(C)ccc1OCCSc1nc2ccc(NC(C)=O)cc2s1 -7.56%
CCCCCn1c(=O)c2c(nc3n2CCN3c2ccc(Br)cc2)n(C)c1=O -10.1%
CCC(Sc1nnc2c3ccccc3n(C)c2n1)C(=O)Nc1nnc(C(C)C)s1 (stereo not drawn) -16.2%
CCOc1ccc(NC(=O)CSc2nc(=O)[nH]c3c2CCC3)cc1 -23.6%
O=C(CSc1nc2c(cnn2-c2ccc(F)cc2)c(=O)[nH]1)Nc1ccccc1C(F)(F)F -15.5%
CCC(=O)N1CCc2cc(S(=O)(=O)CCC(=O)NCc3ccc(OC)cc3)ccc21 -11.3%
COc1ccccc1NC(=O)C1=C(C)Nc2nc(SCc3cccc(F)c3)nn2C1c1ccc(C(=O)O)cc1 (stereo not drawn) -5.96%
COc1cccc(CNC(=O)c2cc3ccc4cccnc4c3[nH]2)c1 11.7%
Cc1cccc(-c2nc(SCC(=O)N(C)c3ccccc3)c3c(=O)n(C)c(=O)n(C)c3n2)c1 -1.89%
O=C(c1ccco1)N1CCN(C(=O)c2cnn(-c3cccc(F)c3)c2C2CCNCC2)CC1 -1.15%
CCCN1C(=O)C2(c3ccccc31)c1c(oc3ccccc3c1=O)C(=O)N2CCCOC(C)C (stereo not drawn) -27.9%
O=C(O)c1ccc(C2Nc3ccccc3-c3nnc(SCc4ccc(Cl)cc4)nc3O2)cc1 (stereo not drawn) -11.8%
Cn1c(=O)cc(SCC(=O)N2CCN(c3ccccc3)CC2)c2ccccc21 24.5%
COc1cccc(C(=O)Nc2ccc(C(=O)OCc3cc(=O)n4nc(C5CC5)sc4n3)cc2)c1 -12.9%
COc1cc(OC)c(NC(=O)N2CC=C(c3c[nH]c4ccccc34)CC2)cc1Cl -21.8%
CC1CCN(c2cc(N3CCN(C)CC3)ccc2NC(=O)c2cc(C#N)c[nH]2)CC1 -2.96%
O=C(Cn1c(=O)n2nc(-c3cccc(F)c3)nc2c2ccccc21)N1CCN(c2ccccc2F)CC1 -3.93%
O=C(c1cccc(Cl)c1)N1CCC(c2nc3ccccc3o2)CC1 -18.2%
CC1CCN(C(=O)C(C)Sc2nc(-c3ccccc3)cc(C(F)(F)F)n2)CC1 (stereo not drawn) -37.8%
COc1ccc(OC)c(NC(=O)c2c(C)oc3ncnc(N4CCOCC4)c23)c1 -9.97%
CCCCn1c(=O)nc2n(-c3ccc(F)cc3)c3ccccc3cc-2c1=O -12.9%
CC(Sc1nc2c([nH]c3ccccc32)c(=O)n1-c1ccccc1)c1ccccc1 (stereo not drawn) -29.3%
Cc1ccc(-c2cc(C(F)(F)F)n3ncc(-c4ccc(Cl)cc4)c3n2)cc1 0%
CCOC(=O)C1CCN(C(=O)c2ccc3c(c2)N=C(CC)c2cc(C)ccc2S3)CC1 -30.8%
CN(C)CCN1C(=O)c2cccc3cc(N)cc(c23)C1=O -42.9%
CCOC(=O)N1CCN(C(=O)Cn2ncc3c4ccccc4n(Cc4ccc(F)cc4)c3c2=O)CC1 -25.6%
CCOC(=O)c1c(NC(=O)COc2ccc(Br)cc2)sc(C(C)=O)c1C 5.86%
COc1ccccc1-c1nnc(C2CCN(S(=O)(=O)c3ccc(F)c(C)c3)CC2)o1 -13.5%
O=C(COc1ccc(F)cc1)Nc1ccc(Cl)c(-c2nc3ccccc3[nH]2)c1 -20.8%
Cc1noc(C)c1S(=O)(=O)NCCc1csc2nc(-c3ccc(Cl)cc3)nn12 -25.2%
O=c1cc(CN2CCOCC2)occ1OCCCCCSc1ccnc2cc(C(F)(F)F)ccc12 -38.8%
CCCCc1nn2c(=O)cc(COC(=O)c3ccccc3NC(=O)c3cccc(C)c3)nc2s1 -0.784%
Cc1cccc(NC(=O)c2c(C)oc3ncnc(N4CCCCC4)c23)c1C -22.6%
Cc1ccc(Cl)cc1NS(=O)(=O)c1ccc(N2CCCCS2(=O)=O)cc1 -27.5%
Cc1nc(-c2ccc(F)cc2)sc1CCNC(=O)c1ccc(C(C)(C)C)cc1 -26.6%
CC(=O)Nc1cccc(-c2cn3cccnc3n2)c1 0%
Cc1ccc(NC(=O)Cn2c(=O)n(Cc3ccccc3)c(=O)c3c2c2cc(C)ccc2n3C)cc1 -6.25%
COc1ccc2nc(NC(=O)c3cc(=O)c4cc(C)c(C)cc4o3)sc2c1 -6.64%
Cc1ccc(C(=O)NCC(c2cccnc2)N2CCc3ccccc3C2)cc1C (stereo not drawn) -52.1%
CCOc1ccc(C(=O)c2c(N)c(-c3nc(-c4ccc(OCC)cc4)cs3)c3ccccn23)cc1 7.26%
CCOc1ccc(N2CC(c3nc4ccccc4n3CCOc3ccccc3)CC2=O)cc1 (stereo not drawn) -18.8%
Cc1nn(-c2ccccc2)c2sc(C(=O)Nc3cccc(Br)c3)cc12 -22%
Cc1nc2ncnn2c(C)c1CCC(=O)NCc1cccc(Cl)c1 -6.98%
Cc1ccc(NC(=O)c2cc(S(=O)(=O)N3CCCCC3)c[nH]2)cc1F -11.2%
COc1ccc(C2C=C(c3ccccc3)Nc3nc(NC(=O)/C=C/c4ccc(Cl)cc4)nn32)cc1 (stereo not drawn) -16.3%
CCN1C(=O)c2ccccc2Sc2ccc(NC(=O)c3ccc(C#N)cc3)cc21 -10.2%
O=C1NC(c2ccccc2)(c2ccccc2)C(=O)N1COP(=O)(O)O -0.297%
CN(C(=O)Cn1nnc(-c2ccc(S(C)(=O)=O)cc2)n1)c1ccccc1 -10.1%
Cc1c(C(=O)N(C)C)sc2c1c(=O)n(-c1ccccc1C(F)(F)F)c(=O)n2Cc1cccc(F)c1 -8.21%
COc1ccc(C(=O)Nc2nc3c(s2)Cc2cc(OC)ccc2-3)cc1 -29.7%
COc1ccc(NC(=O)CSc2oc(-c3ccco3)nc2S(=O)(=O)c2ccccc2)c(OC)c1 -11.5%
O[C@@H]1CO[C@H]2[C@@H]1OC[C@@H]2O -6.05%
CCOC(=O)CSc1nc2c(sc3ccccc32)c(=O)n1Cc1ccc(OC)cc1 -15.7%
Cc1cccc(NC(=O)c2sc(-n3nc(C)c(CCC(C)C)c3C)nc2C)c1 3.62%
Cc1ccc2c(c1)N(C(=O)N1CCC(C(=O)NCc3ccccc3F)CC1)CC(C)O2 (stereo not drawn) -23.3%
COc1ccc(OC)c(NC(=O)N2CCN(Cc3nc4ccc(C)cc4o3)CC2)c1 -16%
COc1ccc(CCNc2nc3cc(OC)c(OC)cc3c3nc(-c4cccnc4)nn23)cc1OC -15.7%
O=S(=O)(c1ccccc1)c1nc(-c2ccccc2F)oc1N1CCOCC1 -17.6%
COc1ccc(-c2cn3c(n2)sc2cc(C(=O)Nc4ccc(C)cc4C)ccc23)cc1 12.4%
COc1cc2ccccc2cc1C(=O)Nc1ccc2oc(-c3cccc(C)c3)nc2c1 -3.32%
CCOc1ccc(NC(=O)CCSc2nc(-c3ccc4c(c3)OCO4)cc(C(F)(F)F)n2)cc1 -4.91%
Cc1cc(-n2nc3ccc(Cl)cc3n2)c(O)c(C(C)(C)C)c1 5.21%
COc1ccc(-n2c3c(cc(-c4nc(-c5ccc(Cl)cc5)cs4)c2=O)C(=O)CC(C)(C)C3)cc1Cl -9.94%
CCOc1ccc(NC(=O)CCNS(=O)(=O)c2cccc3nsnc23)cc1 -1.2%
CCc1cccc(C)c1NC(=O)C(CC)Sc1nncn2c1cc1occc12 (stereo not drawn) -19.3%
CCC(=O)Nc1cc(-c2nc3ccccc3s2)c(Cl)cc1Cl -5.77%
Cc1ccc(Nc2nc(C)c(NC(=O)c3ccc(C)cc3)c(Nc3ccc(C)cc3)n2)cc1 -37%
CCS(=O)(=O)N1CCc2cc(C(=O)Nc3cc(OC)c(Cl)cc3OC)ccc21 -12.2%
CCOc1ccc(C(=O)Nc2ccc3oc(-c4ccncc4)nc3c2)cc1 7.72% [at 11.5 µM, percent change from vehicle, -100% = no light]
COc1ccc(NC(=O)c2oc3ccccc3c2NC(=O)COc2ccc(F)cc2)c(OC)c1 0.568%
CCCNc1nc2c(c(=O)n(C)c(=O)n2C)n1CC(O)COc1ccccc1 (stereo not drawn) -12.4%
CN1[C@H]2CC(OC(=O)[C@@H](CO)c3ccccc3)C[C@H]1[C@H]1O[C@H]12 (stereo partly drawn) -3.85% [at 25.1 µM, percent change from vehicle, -100% = no light]
Cc1ccc(NC(=O)Cn2cc(C(=O)C3CCCCC3)c3ccccc32)c(C)c1 -24.1%
Cc1cccc(C(=O)Nc2nnc(S(=O)(=O)N3CCCc4ccccc43)s2)c1 -69%
Cc1ccc(-c2nnc(Nc3cccc(Br)c3)c3ccccc23)cc1S(=O)(=O)NCC1CCCO1 (stereo not drawn) -30.2%
O=C(c1ccc2c(c1)N(Cc1ccc(Cl)cc1)C(=O)c1ccccc1S2(=O)=O)N1CCc2ccccc21 -24.4%
Cc1ccc(NC(=O)CCCn2nc(C)c3sc4ccccc4c3c2=O)c(Cl)c1 -4.31%
COC(=O)c1ccccc1NC(=O)CSc1nnc2cc(C)c3cc(C)cc(C)c3n12 -16.4%
CCC(C(=O)Nc1cccc(C#N)c1)n1nc(-c2ccccc2)ccc1=O (stereo not drawn) -30.5%
O=C(NCc1ccc(F)cc1)C(=O)NCC(c1ccco1)S(=O)(=O)c1cccs1 (stereo not drawn) -17.8%
O=C(Cn1ccc2cc(S(=O)(=O)N3CCCC3)ccc21)NCc1ccccc1Cl -21.5%
CCN1c2ccccc2-c2nc(SCC(=O)Nc3cc(F)ccc3F)ncc2S1(=O)=O -17.4%
CCOC(=O)N1CCc2c(sc3c2c(=O)n(-c2ccc(F)cc2)c(=O)n3CC(=O)c2ccccc2)C1 -5.42%
Cc1cccc(CN2C(=O)c3ccccc3Sc3ccc(C(=O)NCc4cccs4)cc32)c1 -23.1%
CCOC(=O)c1c(C)n(-c2ccccc2)c2ccc(OC(=O)c3cc(OC)cc(OC)c3)cc12 -3.52% [at 11.5 µM, percent change from vehicle, -100% = no light]
